Source: PubChem BioAssay AID624417 (National Center for Advancing Translational Sciences (NCATS), 2012)
The whole screen tested about 410,000 compounds, of which about 6,400 (1.6%) were called active. The shares of active, inactive and inconclusive entries below differ from those in the screen. Calls follow the shape of the dose curve; as a rule, active = well fitted inhibition curve with a large enough effect; inconclusive = small, poorly fitted or top-dose-only effect; inactive = no such curve, though single readings can be large or run the other way. No potency is given beside an inconclusive call; the fits are too rough.

Target: Glucagon-like peptide 1 receptor (Homo sapiens) (UniProt P43220)
Chain of UniProt P43220 (P43220 whole entry, looked up): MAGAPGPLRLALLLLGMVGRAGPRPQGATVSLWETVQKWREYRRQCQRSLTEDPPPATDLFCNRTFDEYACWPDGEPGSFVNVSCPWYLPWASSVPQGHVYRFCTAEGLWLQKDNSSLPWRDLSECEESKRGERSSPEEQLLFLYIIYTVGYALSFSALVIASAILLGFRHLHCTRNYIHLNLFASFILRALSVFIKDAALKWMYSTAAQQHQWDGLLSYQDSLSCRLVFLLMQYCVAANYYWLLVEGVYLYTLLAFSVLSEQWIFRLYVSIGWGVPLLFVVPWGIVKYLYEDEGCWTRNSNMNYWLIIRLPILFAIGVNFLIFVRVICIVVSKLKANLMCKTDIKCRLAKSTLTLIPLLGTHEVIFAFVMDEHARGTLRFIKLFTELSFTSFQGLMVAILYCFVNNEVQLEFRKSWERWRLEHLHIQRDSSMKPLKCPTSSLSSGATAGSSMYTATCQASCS
Test: qHTS of GLP-1 Receptor Inverse Agonists (Inhibition Mode); also: nearly all actives have a fitted effect of over 55% in size
Conditions: HEK293 GLP-1R CRE-luciferase, luminescence, 24 h, GLP-1R form is constitutively active; series mostly up to 38.3 µM
Method in brief: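 Constitutively active GLP-1R drives a cAMP-responsive luciferase in stably transfected HEK293 cells; test compounds are added after overnight (12 h) attachment and left 24 hr, and signal loss in luminescence marks inhibition.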
Potency is read from the fitted curve at half-maximal effect; tags tell the direction and shape of the fitted curve.

Compound	Potency
CCOC(=O)c1ccc(NC(=S)N(CCCN2CCN(C)CC2)Cc2cccs2)cc1	inconclusive [inhibitor, full curve, poor fit]
Cc1ccc(NC(=O)CCC(=O)NNC(=O)Nc2cccc(Cl)c2)c(C)c1	inconclusive [inhibitor, partial curve, poor fit]
COCCn1c(N)c(S(=O)(=O)c2cccs2)c2nc3ccccc3nc21	inactive
CN(C)c1cccc(C(=O)Nc2cc(C(F)(F)F)ccc2-n2cnc3ccccc32)c1	inconclusive [inhibitor, partial curve, poor fit]
Cc1ccc(CN(N=Nc2nonc2N)c2nonc2N)c(C)c1	active: 2.82 µM
Oc1cccc(-c2sc3ccccc3c2-c2ccc(OCCN3CCCCC3)cc2)c1	inconclusive [inhibitor, single point]
CCOC(=O)c1c(CSc2ccccc2)n(C)c2ccc(O)cc12	inconclusive [inhibitor, partial curve, poor fit]
Cc1[nH]c2ccccc2c1C(=O)CN1C(=O)NC2(CC(C)CC(C)(C)C2)C1=O (stereo not drawn)	inconclusive [inhibitor, single point]
O=C(Nc1cc(C(F)(F)F)ccc1Cl)c1noc2c1CCCCC2	inactive
O=C(C(c1ccccc1)c1ccccc1)N1CC[C@@]2(O)CCCC[C@H]2C1	inconclusive [inhibitor, single point]
Cc1noc(C)c1S(=O)(=O)Nc1ccccc1Oc1ccccc1	inconclusive [inhibitor, single point]
CC(=O)Nc1ccc(-c2ccnc3c2CC(C)(C(=O)Nc2cccc(OC(F)(F)F)c2)O3)cc1 (stereo not drawn)	inconclusive [inhibitor, partial curve, poor fit]
CC(C)(C)OC(=O)N(Cc1ccccc1)Cc1ccccc1OCc1cccc(NC(=O)C2CC2)c1	active: 10 µM
O=C(Nc1cccc(Cl)c1)Nc1cc(S(=O)(=O)N2CCCCC2)ccc1Cl	active: 2.82 µM
Cc1oc(C(C)(C)C)cc1C(=O)NC1CCN(Cc2ccccc2)CC1	active: 12.6 µM
Cc1ccccc1C(=O)Nc1sc(C)c(C)c1C(=O)c1ccccc1	inconclusive [inhibitor, single point]
COCc1nc2ccccc2n1Cc1ccc(Br)cc1	inconclusive [inhibitor, single point]
CCN(Cc1ccncc1)Cc1cn(C)nc1-c1ccc(Oc2ccccc2)cc1	inconclusive [inhibitor, partial curve, poor fit]
